{"source": "the RNAGym collection of RNA variant scans (doi:10.7554/elife.90254)", "parents": {"B1": {"name": "LINE1-mini (parent)", "chain": "GGCAGAGCUCAACACAGCGUGGCAAAGUGGCUGUGGCUAGACUGCC"}}, "note": "The source gives no read counts; variants with many changes may rest on few reads.", "data": [{"variants_of": "B1", "test": "self-cleavage, relative activity (ratio to wild type); higher = more cleavage; in vitro, sequencing; the parent is a self-cleaving ribozyme", "values": [{"variant": "G2C U28C A41C", "self-cleavage": 0.01}, {"variant": "G2C G17C G30C", "self-cleavage": 0.07}, {"variant": "G2C G5A A24U A41U", "self-cleavage": 0.03}, {"variant": "G2C C13G C23G", "self-cleavage": 0.04}, {"variant": "G2C C10A C23U", "self-cleavage": 0.01}, {"variant": "G2C G5C C46A", "self-cleavage": 0.03}, {"variant": "G2C C13U C31A", "self-cleavage": 0.13}, {"variant": "G2C U20G G21A G27C C46A", "self-cleavage": 0.02}, {"variant": "G2C G7U C46G", "self-cleavage": 0.03}, {"variant": "G2C C10G G17C G36U", "self-cleavage": 0.02}, {"variant": "G2C G5U C10G C15G A39C", "self-cleavage": 0}, {"variant": "G2C G17A G19A G22C G35A C42U", "self-cleavage": 0.09}, {"variant": "G2U A4U C13G A26G", "self-cleavage": 0.11}, {"variant": "G2C C31G G40U", "self-cleavage": 0.05}, {"variant": "G2C C8U G17A C31A U38C", "self-cleavage": 0.07}, {"variant": "G2C G29A U34C", "self-cleavage": 0.02}, {"variant": "G2C U9A C42A C46A", "self-cleavage": 0.14}, {"variant": "G2C G27C C31U", "self-cleavage": 0.06}, {"variant": "G2C G21U A25U C46A", "self-cleavage": 0.34}, {"variant": "G2C U9A C31G G36A", "self-cleavage": 0.08}, {"variant": "G2C U9G C15G U32C", "self-cleavage": 0.01}, {"variant": "G2C C8U A14G G21U U28C U38A A41U C46G", "self-cleavage": 0.08}, {"variant": "G2C G35C A39G", "self-cleavage": 0.05}, {"variant": "G2C G5U U34A", "self-cleavage": 0.04}, {"variant": "G2C G5U C23G G27C G35U", "self-cleavage": 0.08}, {"variant": "G2C G19U G22U", "self-cleavage": 0.23}, {"variant": "G2C G7A C15G U20C A41G C42G", "self-cleavage": 0.16}, {"variant": "G2C C31A A39C C45A", "self-cleavage": 0.08}, {"variant": "G2C C8U U9A C15U G17C A24G", "self-cleavage": 0.11}, {"variant": "G2C U9C A25G", "self-cleavage": 0.01}, {"variant": "G2U A4U U32A", "self-cleavage": 0.02}, {"variant": "G2C G5U A14U G21U", "self-cleavage": 0.02}, {"variant": "G2C G35C C46U", "self-cleavage": 0.18}, {"variant": "G2C G5C U9G C37A", "self-cleavage": 0.02}, {"variant": "G2C C13G G36C", "self-cleavage": 0.05}, {"variant": "G2C G29C G30A G36A C46G", "self-cleavage": 0.13}, {"variant": "G2C G7C C10G U38C", "self-cleavage": 0.01}, {"variant": "G2C G33C C42A C45U", "self-cleavage": 0.06}, {"variant": "G2C C13U C15A G40U", "self-cleavage": 0.02}, {"variant": "G2C G19C G36U C37U", "self-cleavage": 0.01}, {"variant": "G2C G27U U43G C45U", "self-cleavage": 0.01}, {"variant": "G2C G7U A16U G35A U38G", "self-cleavage": 0.29}, {"variant": "G2C G17U G21U", "self-cleavage": 0.05}, {"variant": "G2U A4U G5U U9A G36U A41U G44C", "self-cleavage": 0.01}, {"variant": "G2C C23G A25C", "self-cleavage": 0.12}, {"variant": "G2C G7C A11U A14U A16G G19U G21C A41C", "self-cleavage": 0.01}, {"variant": "G2U A4G U20C A26C", "self-cleavage": 0.04}, {"variant": "G2C G21U U32A G33A", "self-cleavage": 0.05}, {"variant": "G2C U9C C13A", "self-cleavage": 0.09}, {"variant": "G2U A4G C10U G40U", "self-cleavage": 0.05}, {"variant": "G2C G29C G40U", "self-cleavage": 0.02}, {"variant": "G2C C15A U28A G29U", "self-cleavage": 0.01}, {"variant": "G2C G7A C8A G19C C23G A24U G27A G36C", "self-cleavage": 0.16}, {"variant": "G2C C18A G29A", "self-cleavage": 0.09}, {"variant": "G2C G30A G36U C42G", "self-cleavage": 0.15}, {"variant": "G2C G17A G40U", "self-cleavage": 0.02}, {"variant": "G2C G5C A39C", "self-cleavage": 0.03}, {"variant": "G2C C8U C10A", "self-cleavage": 0.03}, {"variant": "G2C G22A G30A C42U", "self-cleavage": 0.11}, {"variant": "G2C C13U C18U A26C", "self-cleavage": 0.01}, {"variant": "G2C G5A A11G C13A G17A G35C A39G U43C", "self-cleavage": 0}, {"variant": "G2C G21U A39G", "self-cleavage": 0.02}, {"variant": "G2C U9G C13U G21A C23G U32G G35A", "self-cleavage": 0.13}, {"variant": "G2C C13U A25U G27A", "self-cleavage": 0.27}, {"variant": "G2C U20G G21U C42U", "self-cleavage": 0.1}, {"variant": "G2U A6C C18U A24U C37G", "self-cleavage": 0.01}, {"variant": "G2U A4U U28A", "self-cleavage": 0.04}, {"variant": "G2U A4C G5C C13U G22C", "self-cleavage": 0.17}, {"variant": "G2C G33U G35A", "self-cleavage": 0.03}, {"variant": "G2C G5U G7A U20G G22U C23A", "self-cleavage": 0.05}, {"variant": "G2C G21U C23G", "self-cleavage": 0.06}, {"variant": "G2C C18G G29A", "self-cleavage": 0.21}, {"variant": "G2C C15U C37G A41G C42G", "self-cleavage": 0.02}, {"variant": "G2C G22U G35A G44A", "self-cleavage": 0.02}, {"variant": "G2C C15A U28A", "self-cleavage": 0.04}, {"variant": "G2C G40U C46U", "self-cleavage": 0.29}, {"variant": "G2C G19A C23G U38G A39G", "self-cleavage": 0.02}, {"variant": "G2C U9C G21C G29C C42A", "self-cleavage": 0.01}, {"variant": "G2C G17U C37G", "self-cleavage": 0.24}, {"variant": "G2C G35U G36A", "self-cleavage": 0.15}, {"variant": "G2U A4U A14G G17C", "self-cleavage": 0.02}, {"variant": "G2C C15U C23A", "self-cleavage": 0.06}, {"variant": "G2C G5A C10A A26C", "self-cleavage": 0.02}]}]}
